PubChem BioAssay AID463173 (ICCB-Longwood Screening Facility, Harvard Medical School, 2010)
The campaign covered roughly 52,000 compounds. About 4,300 (8.3%) were called active. Rule as the data show it: active = survival mostly below about 52% (no sharp cut-off); inactive = mostly above about 56%. The list shows a part of the results.

system: DeltatarO mutant; assay: growth inhibition of S. aureus wild type versus tarO mutant, primary screen, teichoic acid synthesis inhibitors, RN4220, OD600 (AID 463173); conditions: OD600, 18 h, active compounds read low, screened at 18.75 µg/mL (by protocol)

Structure (SMILES)	survival
O=C(c1c2c(nc3ccccc13)C(=O)N(C1CCCCC1)C2)N1CCN(c2ccc(F)cc2)CC1	inactive: 102%
CCOC(=O)N1CCN(C(=O)c2ccc3c(c2)N(Cc2ccccc2F)C(=O)c2ccccc2S3=O)CC1 (stereo unspecified)	inactive: 93%
COC(=O)c1c(NC(=O)c2cc(=O)c3c(C)cc(C)cc3o2)sc2c1CCCC2	inactive: 61%
Cc1ccc(-n2ncc3c(N4CCN(c5ccccc5)CC4)ncnc32)cc1C	inactive: 92%
Cc1cccc(NC(=O)CN(c2ccc(C(C)C)cc2)S(=O)(=O)c2c(C)nn(C)c2C)c1C	active: 42%
CCOC(=O)C1CCN(S(=O)(=O)c2cc(-c3onc(C)c3C)ccc2C)CC1	inactive: 91%
CCOc1cc(CNS(=O)(=O)c2ccc3c(c2)CC(=O)N3C)cc(OCC)c1OCC	inactive: 98%
O=C(Nc1ccc(C(=O)N2CCN(c3ccc(F)cc3)CC2)cc1)c1nsc2ccccc12	inactive: 81%
CCN1CCN(CCCNC(=O)c2ccc3nc(Cc4ccc(OC)cc4)oc3c2)CC1	inactive: 99%
CC(C)C(=O)Nc1ccc(Br)cc1	inactive: 103%
Cc1cc(C)n(C(C)CC(=O)NCc2ccccc2C)n1 (stereo unspecified)	inactive: 79%
COc1ccc(Br)cc1C(=O)Nc1ccc2oc(-c3cccnc3)nc2c1	inactive: 117%
CC(=O)Nc1ccc(S(=O)(=O)N2CCC(c3ccncc3)CC2)cc1	active: -5%
CCCCN(CCCC)c1ncnc2c1cnn2-c1cccc(C)c1	inactive: 74%
CCOC(=O)c1c(S(=O)(=O)N2CCCC(C(=O)Nc3ccc(OCC)cc3)C2)c(C)n(C)c1C (stereo unspecified)	inactive: 99%
COc1ccc(C)cc1Nc1nc2c(S(=O)(=O)c3cccc(Cl)c3)nnn2c2ccsc12	inactive: 51%
Cc1ccc(S(=O)(=O)c2cn(Cc3cccc(F)c3)c3cc(N4CCCC4)c(F)cc3c2=O)cc1	inactive: 70%
Cc1ccc(-c2cc(NC(=O)c3ccccc3Cl)on2)cc1	inactive: 59%
CCCOc1ccccc1-c1nc(SCC(=O)c2ccccc2)n[nH]1	inactive: 109%

Structure (SMILES)	survival
CCN(CC)c1nn2c(=O)c(C(=O)NCCc3ccc(C)cc3)cnc2s1	inactive: 87%
CCn1c2ccccc2c2nnc(N3CCN(c4ccc(F)cc4)CC3)nc21	inactive: 75%
Cc1nc2sc(C(=O)N(C)Cc3ccccc3)c(NC(=O)c3ccccc3)c2c(C)c1Cl	inactive: 60%
Cc1cccc(N2CCN(C(c3nnnn3C3CCCC3)C(C)C)CC2)c1C (stereo unspecified)	inactive: 79%
CCOC(=O)c1cc2c(=O)n3ccccc3nc2n(CC2CCCO2)c1=NC(=O)c1ccc(C(C)(C)C)cc1 (stereo unspecified)	inactive: 59%
CCOc1ccc(CNC(=O)c2ccc(Sc3ccc(Cl)cc3)c(NC(C)=O)c2)cc1	inactive: 115%
CCCC(=O)Nc1ccc2c(c1)nc(CN1CCN(C(=O)OCC)CC1)n2C(C)C	inactive: 103%
COc1ccc(NC(=O)CSc2cn(CC(=O)N3CCCCC3)c3ccccc23)c(OC)c1	inactive: 76%
COc1ccccc1CNC(=O)Cc1c(C)c2c(cc(C)c3c(C)c(C)oc32)oc1=O	inactive: 84%
CC(C)(C)C(=O)N(CCc1ccccc1)Cc1nc2ccccc2c(=O)[nH]1	inactive: 81%
CCCC(=O)N(C)c1nnc(-c2ccc(F)cc2)s1	inactive: 99%
Cc1ccccc1C(=O)c1cccn1CC(=O)NCc1ccc(Cl)cc1	inactive: 82%
CCC1CN(C(=O)NCc2cccc(OC)c2)c2cc(Cl)ccc2O1 (stereo unspecified)	active: 43%
COc1ccc(CCNC(=O)CCCn2c(=O)c3cccn3c3cccnc32)cc1OC	inactive: 90%
Cc1ccc2c(CN3CCN(Cc4ccccc4Cl)CC3)cc(=O)oc2c1	inactive: 43%
CCCCC1CCC(C(=O)N2CC(=O)Nc3ccc(F)cc3C2c2ccc(F)cc2)CC1 (stereo unspecified)	active: 38%
CCCOc1ccc(/C=C/C(=O)Nc2sc(C)c(C)c2C(=O)OCC)cc1OC	inactive: 47%
CCOc1ccc(S(=O)(=O)NCCc2csc(-c3ccc(Cl)cc3)n2)cc1	inactive: 91%
Cc1nc(S(=O)(=O)N2CCN(c3ccc(Cl)cc3)CC2)cn1C	inactive: 69%

Structure (SMILES)	survival
Cc1nnc(SCc2cc(=O)c3ccccc3[nH]2)s1	inactive: 125%
CCOc1ccc(CCNC(=O)c2ccc(-c3nc(CSc4ccc(C)cc4)c(C)o3)cc2)cc1	inactive: 76%
COc1ccc(OC)c(NC(=O)CCN2CCN(Cc3cccc4ccccc34)CC2)c1	inactive: 89%
Cc1cc(C)cc(Nc2ncnc3c2nc2n3CCCC2)c1	inactive: 70%
COc1ccc(N2CC(NC(=O)COc3ccccc3F)CC2=O)cc1OC (stereo unspecified)	inactive: 91%
COC(=O)c1ccc(C=Nc2ccc(O)c(-c3nc4ccccc4o3)c2)cc1	inactive: 93%
CCOc1ccc(NC(=O)CSc2oc(-c3ccco3)nc2S(=O)(=O)c2ccc(C)cc2)cc1	inactive: 74%
CC(C)OC(=O)CSc1nc2cc3c(cc2cc1C#N)OCO3	inactive: 80%
CC(C)CCNC(=O)CN1C(=O)CCn2nc(-c3cn(C)c4ccccc34)cc21	inactive: 94%
Cc1ccc(C2NC(=O)c3n[nH]c(-c4cccs4)c32)cc1 (stereo unspecified)	inactive: 79%
Cc1ccc(S(=O)(=O)N2CCN(S(=O)(=O)c3ccc(C)cc3)CC2)cc1	inactive: 96%
Cc1ccc(Cl)cc1N1CCN(C(=O)Cn2nc(C)c3sc4ccccc4c3c2=O)CC1	inactive: 57%
COc1ccc(NC(=O)CCS(=O)(=O)c2nc(-c3ccc4c(c3)OCO4)cc(C(F)(F)F)n2)cc1OC	inactive: 79%
CCC(C)NC(=O)CCSc1nc(-c2ccc3c(c2)OCO3)cc(C(F)(F)F)n1 (stereo unspecified)	inactive: 120%
O=C(Nc1cccc(C(=O)OCc2cc(=O)n3c4c(sc3n2)CCCC4)c1)c1cccc(F)c1	inactive: 98%
CCOC(=O)c1ccc(N2C(=O)c3[nH]nc(-c4ccc(OC)cc4)c3C2c2cccc(O)c2)cc1 (stereo unspecified)	inactive: 57%
COc1ccccc1CNC(=O)CCn1c(=O)c2ccccc2n(CC(=O)Nc2cc(Cl)ccc2C)c1=O	inactive: 77%
COc1ccccc1NC(=O)Cn1nnc(C(=O)NCc2cccs2)c1N	inactive: 81%
